Source: publication PMC11665475, “The CTR hydrophobic residues of Nem1 catalytic subunit are required to form a protein phosphatase complex with Spo7 to activate yeast Pah1 PA phosphatase” (The Journal of Biological Chemistry, 2024)
These are yes or no findings as the source states them, for the method shown. Binding seen in cells or lysates may run through a third protein. Some entries that bind do so weakly or less than the wild type. Tags and fused reporters may be left off the sequences shown.

Columns and labels:
Test in all cases: pull-down; protein A-tagged Nem1 (WT or variant) isolated by IgG-Sepharose affinity chromatography from cell extracts (3 mg protein) of nem1Δ spo7Δ pah1Δ (GHY85) cells co-overexpressing Spo7, at 4 °C; Spo7 in the affinity-purified Nem1 preparation scored by Western blot with anti-Spo7; loading normalized to the elution volume of purified Nem1-PtA
protein A-tagged Nem1 8A = biological target: T1, protein A-tagged Nem1 8A (S. cerevisiae, UniProt P38757 1-446, L414 A | L415 A | L417 A | L418 A | L421 A | V430 A | L434 A | L436 A)
T1 sequence (looked up): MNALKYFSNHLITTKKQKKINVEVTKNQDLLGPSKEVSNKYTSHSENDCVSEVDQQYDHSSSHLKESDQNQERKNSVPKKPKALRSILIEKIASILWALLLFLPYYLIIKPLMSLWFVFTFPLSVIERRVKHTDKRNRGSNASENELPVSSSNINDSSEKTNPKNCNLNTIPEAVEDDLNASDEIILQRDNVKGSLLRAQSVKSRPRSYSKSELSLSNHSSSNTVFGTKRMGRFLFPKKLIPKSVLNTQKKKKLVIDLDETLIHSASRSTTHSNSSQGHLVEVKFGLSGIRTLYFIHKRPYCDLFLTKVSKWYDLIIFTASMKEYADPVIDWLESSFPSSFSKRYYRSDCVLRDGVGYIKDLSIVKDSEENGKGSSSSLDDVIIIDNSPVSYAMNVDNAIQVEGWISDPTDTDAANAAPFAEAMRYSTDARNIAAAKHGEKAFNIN

[1] = biological target: T2, protein A-tagged Nem1 Δ(251–446) (S. cerevisiae) (UniProt P38757)
T2 sequence: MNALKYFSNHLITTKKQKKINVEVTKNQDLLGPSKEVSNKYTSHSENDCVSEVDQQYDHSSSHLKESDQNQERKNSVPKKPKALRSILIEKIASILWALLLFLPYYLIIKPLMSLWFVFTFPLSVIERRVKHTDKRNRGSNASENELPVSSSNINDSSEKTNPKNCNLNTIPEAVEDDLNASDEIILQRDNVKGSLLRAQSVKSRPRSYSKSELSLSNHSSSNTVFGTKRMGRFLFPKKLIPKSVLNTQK

[2] = biological target: T3, protein A-tagged Nem1 Δ(414–446) (S. cerevisiae, UniProt P38757 1-413)
T3 sequence (looked up): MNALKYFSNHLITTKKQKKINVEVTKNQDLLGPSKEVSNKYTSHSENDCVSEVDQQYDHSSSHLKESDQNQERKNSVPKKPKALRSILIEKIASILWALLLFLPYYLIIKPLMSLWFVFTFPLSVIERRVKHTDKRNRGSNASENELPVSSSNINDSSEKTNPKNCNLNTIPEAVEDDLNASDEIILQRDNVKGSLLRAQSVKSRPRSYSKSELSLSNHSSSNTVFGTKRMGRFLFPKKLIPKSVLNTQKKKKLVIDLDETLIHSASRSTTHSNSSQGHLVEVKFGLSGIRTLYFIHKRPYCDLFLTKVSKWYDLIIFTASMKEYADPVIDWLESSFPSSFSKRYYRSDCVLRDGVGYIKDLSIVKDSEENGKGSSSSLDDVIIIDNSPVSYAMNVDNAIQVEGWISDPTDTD

[3] = biological target: T4, protein A-tagged Nem1 Δ(251–413) (S. cerevisiae) (UniProt P38757)
T4 sequence: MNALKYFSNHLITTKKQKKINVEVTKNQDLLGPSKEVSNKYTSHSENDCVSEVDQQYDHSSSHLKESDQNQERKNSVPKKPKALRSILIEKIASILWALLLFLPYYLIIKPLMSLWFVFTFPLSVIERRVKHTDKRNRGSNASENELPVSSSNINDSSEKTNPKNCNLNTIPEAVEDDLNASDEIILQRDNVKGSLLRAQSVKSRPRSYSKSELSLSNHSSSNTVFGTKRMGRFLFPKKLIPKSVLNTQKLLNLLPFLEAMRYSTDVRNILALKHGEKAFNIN

protein A-tagged Nem1 8R = biological target: T5, protein A-tagged Nem1 8R (S. cerevisiae, UniProt P38757 1-446, L414 R | L415 R | L417 R | L418 R | L421 R | V430 R | L434 R | L436 R)
T5 sequence (looked up): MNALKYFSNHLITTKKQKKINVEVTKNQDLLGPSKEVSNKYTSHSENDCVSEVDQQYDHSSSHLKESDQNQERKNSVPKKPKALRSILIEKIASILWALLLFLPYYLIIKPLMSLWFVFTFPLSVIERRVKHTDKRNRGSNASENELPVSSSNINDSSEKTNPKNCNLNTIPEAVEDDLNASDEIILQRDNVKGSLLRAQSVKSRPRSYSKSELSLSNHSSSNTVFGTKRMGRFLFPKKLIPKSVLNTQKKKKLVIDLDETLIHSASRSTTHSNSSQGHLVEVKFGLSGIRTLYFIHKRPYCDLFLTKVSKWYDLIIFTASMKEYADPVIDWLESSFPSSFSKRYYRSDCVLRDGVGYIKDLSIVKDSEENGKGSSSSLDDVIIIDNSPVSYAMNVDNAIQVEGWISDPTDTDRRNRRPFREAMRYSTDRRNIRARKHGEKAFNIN

[4] = biological target: T6, protein A-tagged Nem1 (WT) (S. cerevisiae) (UniProt P38757)
T6 sequence: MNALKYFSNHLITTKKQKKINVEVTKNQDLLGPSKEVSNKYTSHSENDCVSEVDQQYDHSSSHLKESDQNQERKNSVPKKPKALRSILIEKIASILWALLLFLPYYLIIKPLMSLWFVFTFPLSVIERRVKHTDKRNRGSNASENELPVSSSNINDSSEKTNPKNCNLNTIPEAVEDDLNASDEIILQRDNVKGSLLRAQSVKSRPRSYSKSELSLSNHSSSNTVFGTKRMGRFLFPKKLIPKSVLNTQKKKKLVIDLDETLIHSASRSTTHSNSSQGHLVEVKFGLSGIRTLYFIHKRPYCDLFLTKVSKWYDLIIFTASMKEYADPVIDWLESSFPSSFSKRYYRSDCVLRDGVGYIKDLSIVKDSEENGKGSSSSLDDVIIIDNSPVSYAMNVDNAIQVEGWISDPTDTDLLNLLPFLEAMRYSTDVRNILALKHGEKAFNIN

binding (protein A-tagged Nem1 8A): no binding
binding [1]: no binding
binding [2]: no binding
binding [3]: no binding
binding (protein A-tagged Nem1 8R): no binding
binding [4]: binds
B1: Spo7 (natural protein, S. cerevisiae, UniProt P18410 1-259, looked up)
chain: MEPESIGDVGNHAQDDSASIVSGPRRRSTSKTSSAKNIRNSSNISPASMIFRNLLILEDDLRRQAHEQKILKWQFTLFLASMAGVGAFTFYELYFTSDYVKGLHRVILQFTLSFISITVVLFHISGQYRRTIVIPRRFFTSTNKGIRQFNVKLVKVQSTWDEKYTDSVRFVSRTIAYCNIYCLKKFLWLKDDNAIVKFWKSVTIQSQPRIGAVDVKLVLNPRAFSAEIREGWEIYRDEFWAREGARRRKQAHELRPKSE
